Results on 117 sequences are retold here after the supplement of paper PMC5499739.

In all, about 16,000 sequences were measured (“Z-score”: median about -0.37, highest 2% from about 3.2 on). Some of the results follow.

The subject of this assay is RBM10 RRM1-ZnF (GST-tagged construct). Put plainly: RNAcompete 7-mer binding Z-score; higher = stronger binding preference. As for the experimental part:
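RNAcompete: 20 pmol GST-tagged RBM10 RNA-binding constructs were incubated with a designed RNA pool of about 241,000 sequences up to 41 nt (1.5 nmol) on glutathione beads for 30 min at 4 °C and washed. Bound RNAs were identified by microarray hybridisation. Each RNA 7-mer is scored by a one-sided Z-score of its enrichment, computed over probes that contain the 7-mer within longer pool sequences.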
As to GCACUCG, the “RNAcompete 7-mer binding Z-score” value was -0.34.
For the sequence UAUCCCC, the “RNAcompete 7-mer binding Z-score” value was -0.652.
Consider ACAUAAA, for which the “RNAcompete 7-mer binding Z-score” value is -0.584.
To ACUCGCA belongs -0.678.
In the case of CUUAUCG, the “RNAcompete 7-mer binding Z-score” value was -0.688.
Under UCAACAC stands -0.461; under UGAUGCC, -0.558; under CGUGCAC, -0.236.
For the sequence GCAAGUG, the “RNAcompete 7-mer binding Z-score” value amounted to 0.852.
To GUAAACG belongs 0.465; to AGCGUAC, -0.415.
To GUGUCAC belongs -0.308; to CGCGUGU, -0.366.
For the sequence CUCGAGC, the “RNAcompete 7-mer binding Z-score” value was -0.594.
As to GCCCAGU, the “RNAcompete 7-mer binding Z-score” value is -0.61.
To CUACUGA belongs -0.659; to GAAGCCG, -0.227; to CUAAACG, -0.412.
To CUACUCG belongs -0.565.
To CGAAGAA belongs 0.0885; to GCAUCGA, -0.22.
With CUGUUUG, the “RNAcompete 7-mer binding Z-score” value is -0.49.
Consider CAAAUUA, for which the “RNAcompete 7-mer binding Z-score” value is -0.604.
Under CUGUCAG stands -0.386; under GCUUAUU, -0.795; under AUCUGCA, -0.831.
Take UCGCCCA: the “RNAcompete 7-mer binding Z-score” value was -0.607.
To UAUCACC belongs -0.782; to AUCCCAU, -0.818.
Under UAAAGCG stands 0.29; under UUGACUA, -0.467; under CCCGGGA, 0.235.
For GUAAUAC, the “RNAcompete 7-mer binding Z-score” value is -0.171.
Turning to CGGGAAC, the “RNAcompete 7-mer binding Z-score” value is 1.52.
To ACUCCGG belongs -0.285.
With UCGACUC, the “RNAcompete 7-mer binding Z-score” value is -0.808.
In the case of CGUGCAU, the “RNAcompete 7-mer binding Z-score” value was -0.357.
As for CACGUCG, the “RNAcompete 7-mer binding Z-score” value was -0.308.
Turning to GGUGGCC, the “RNAcompete 7-mer binding Z-score” value amounted to 1.27.
To GUUCUAU belongs -0.717; to UUGGGGC, 1.95.
To AAUAACC belongs -0.789.
Consider UGGAUUU, for which the “RNAcompete 7-mer binding Z-score” value is 0.621.
In the case of GUCACCG, the “RNAcompete 7-mer binding Z-score” value is -0.347.
Turning to CGGAGCA, the “RNAcompete 7-mer binding Z-score” value was determined as 0.709.
On to AUUCGGA, for which the “RNAcompete 7-mer binding Z-score” value was -0.0772.
To GAGGAUU belongs 1.21; to CUAGCUC, -0.626.
Consider GUCGCCC, for which the “RNAcompete 7-mer binding Z-score” value is -0.383.
On to GGUAAAC, for which the “RNAcompete 7-mer binding Z-score” value came out at 0.959.
Take UGCCCUG: the “RNAcompete 7-mer binding Z-score” value is -0.34.
To GAAUGAU belongs 0.189.
Consider CGGGUAG, for which the “RNAcompete 7-mer binding Z-score” value turned out to be 2.18.
Under CUUUUUA stands -0.906; under GUGUACA, 0.397; under CAGCCGC, -0.47.
With CAUGAAC, the “RNAcompete 7-mer binding Z-score” value was -0.331.
As for AGUAGUC, the “RNAcompete 7-mer binding Z-score” value is -0.376.
Under ACUAGGA stands 0.719; under CACCUGC, -0.652; under GACAAUU, -0.256.
With AGAGCCU, the “RNAcompete 7-mer binding Z-score” value was -0.922.
Under AACUGUG stands 0.105; under AACCACC, -0.584.
Under CGUGAUU stands -0.353; under AGUCAUG, -0.116.
To AAAACAC belongs -0.441; to GGAGAUA, 1.94; to CGAGGGU, 3.7.
Consider GUCAUUG, for which the “RNAcompete 7-mer binding Z-score” value is -0.253.
To ACAGAUG belongs 0.452.
To CUUAGAU belongs -0.594; to GUGUAAA, 0.618.
In the case of CUUAUCA, the “RNAcompete 7-mer binding Z-score” value was -0.733.
Under AAAAGCA stands -0.227; under CUGCUGU, -0.626.
Take GGGCAAC: the “RNAcompete 7-mer binding Z-score” value was 1.84.
For AAUCGUU, the “RNAcompete 7-mer binding Z-score” value was -0.662.
Under AACCCAC stands -0.574.
Under UUAUUGA stands -0.555; under CCGGGAG, 0.904.
In the case of GUGGCUU, the “RNAcompete 7-mer binding Z-score” value is -0.0707.
GGUCUGA: the “RNAcompete 7-mer binding Z-score” value is -0.113.
To UCCAUCU belongs -0.867.
As to CAUCACU, the “RNAcompete 7-mer binding Z-score” value is -0.766.
Under UGGGGUC stands 2.57; under AAUCGAU, -0.353.
To CGUGGGU belongs 2.81.
Under CUUUGGU stands -0.298; under UGCACGG, 0.586; under UUUUCCG, -0.759.
For CAAUGAA, the “RNAcompete 7-mer binding Z-score” value is -0.496.
To UGGAUGC belongs 1.17.
In the case of GCCGUUC, the “RNAcompete 7-mer binding Z-score” value was -0.798.
As for GCUUAAU, the “RNAcompete 7-mer binding Z-score” value was -0.642.
Under UUUGACA stands -0.571; under AGACGCU, -0.932.
As to CUGAAGC, the “RNAcompete 7-mer binding Z-score” value was -0.529.
To UCGCUAC belongs -0.665; to AAAGCAU, -0.415.
Take GUCCGCU: the “RNAcompete 7-mer binding Z-score” value was -0.694.
Regarding CUCGAGU, the “RNAcompete 7-mer binding Z-score” value is -0.539.
Regarding CCAACAG, the “RNAcompete 7-mer binding Z-score” value is -0.314.
To ACAGGUU belongs 1.42; to CCCGAAU, -0.646.
In the case of UUUGGAA, the “RNAcompete 7-mer binding Z-score” value amounted to 0.631.
In the case of CACUUGG, the “RNAcompete 7-mer binding Z-score” value is -0.194.
To GGCCGAC belongs 0.0658.
Turning to AACGAGU, the “RNAcompete 7-mer binding Z-score” value worked out at 0.0268.
Turning to CGACGAU, the “RNAcompete 7-mer binding Z-score” value was -0.425.
In the case of AAUGGUC, the “RNAcompete 7-mer binding Z-score” value turned out to be 0.368.
To AGACCAC belongs -0.909; to AACACCC, -0.47; to CCGGGAA, 0.761.
Under CGGAGUG stands 1.58; under CCGACCG, -0.444; under GAGGCCU, -0.386.
